Assay results published in PMC12136788.
The list shows a part of the results.

T1: UNK ZnF1-3 (human, UniProt Q9C0B0 31-174)
T1 sequence: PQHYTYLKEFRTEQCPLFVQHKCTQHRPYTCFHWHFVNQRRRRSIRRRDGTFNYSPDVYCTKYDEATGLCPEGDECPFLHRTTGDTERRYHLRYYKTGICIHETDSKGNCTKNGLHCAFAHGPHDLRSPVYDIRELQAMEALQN

B1: chr2:179515052:179515053:+_ENSMUSG00000000305_ENSMUST00000000314|mus_hu|mus_mus_mus_hu_False|1_98 (ssRNA)
RNA: GGGAGUUCUACAGUCCGACGAUCGCUGUCCCAUGCAGUGACGGUAAACGCCACCUGCUCGGAGGGGACCUGCAGCUCCCGGGUGGCGAAGACUGUCCCAUCUGCCCCAACUUUGAAGUCCAUGCUGUUGGUCUCAUACUGCAUCAACAGAGGAUUGAGCAUCA
B2: 173934343_173934463_2385_3pUTR_ENSMUSG00000026556_ENSMUST00000027837|mouse|control|control (ssRNA)
RNA: GGGAGUUCUACAGUCCGACGAUCGCUCAGGAGGCAAGGGUAGAAUCCGGAAGGCCCUGAAUGCUUCCAUCCAGGGAAGGUUUGCGGGGGAAGAAUGGGGUGGGGGGAUGGGAGAGUUGUGAGGCACUGUUUCCUGCAGGGCCUCAACAGAGGAUUGAGCAUCA
B3: chr13:31725248:31725249:-_ENSG00000120694_ENST00000320027|perfect_dup|motif|central (ssRNA)
RNA: GGGAGUUCUACAGUCCGACGAUCUUUGGAUUUUGCAUCCAACUUGUACUUAGUUUUAAAUUCUGCACAAAAAUGUUCCACGGACUUUUCAUCGAAGUUUUUUCCUCCUAAGAAAGGAUCAAAAGCUGUUCCCAGUACCUUCAACAACAGAGGAUUGAGCAUCA
B4: 21568532_21576724_3879_CDS_ENSMUSG00000033653_ENSMUST00000117598|mouse|control|control (ssRNA)
RNA: GGGAGUUCUACAGUCCGACGAUCGAGGCUGGCUGUUGUUUCUAGCAAGGUUUGCUCAUAGUUGAAGGUGUCCAGCAUCCCCAGAAUAAGGCCCUGGAUUUCUCCAAGCUUUCCUUUUCCAUAAAUUGGGUCCUGCAAGAUUCUCAACAGAGGAUUGAGCAUCA
B5: chr7:135333399:135333400:+_ENSG00000155561_ENST00000285968|hu_mus|FALSE|FALSE (ssRNA)
RNA: GGGAGUUCUACAGUCCGACGAUCGUCCAUAUAUAAAGAAAGAAAUAGCAAAAUAUCUUUUGGUCAUAAUUUAGAAAUAAAGUCAUCUAUAAAAAAGAGGUGGUUCUCCUCAGUUCAUCUCUUCCACGGAAGAGAGUCAGUUCUCAACAGAGGAUUGAGCAUCA
B6: chr11:97639285:97639286:-_ENSMUSG00000071415_ENSMUST00000103146|mus_mus|FALSE|FALSE (ssRNA)
RNA: GGGAGUUCUACAGUCCGACGAUCCUUUACUUAACCUGGAAAGUGAAGAAGUUCUGCAAGGUCAUGAAGGUCAUGCCCUGAACUGAAAUUUAAGUUUCCUUCUGCAAAGCUGAUAUUGGAAAAGGUGUCAAGAAGACCAGCUCUCAACAGAGGAUUGAGCAUCA
B7: 138010474_138010594_306_5pUTR_ENSMUSG00000046447_ENSMUST00000050918|mouse|control|control (ssRNA)
RNA: GGGAGUUCUACAGUCCGACGAUCGGGGAGGAAACCCGGAGGGAGGGAGGGAGGGAGGGAAGAAACCGAGAGGGCGACGGGGAGAAAAACAGAAAGACAGAAGAAGGCAAGGGGAGCGGCGGGAGGAGGGAGGGUGAGGAAGGACAACAGAGGAUUGAGCAUCA
B8: chr5:173380165:173380166:+_ENSG00000113742_ENST00000334035|hu_mus|FALSE|FALSE (ssRNA)
RNA: GGGAGUUCUACAGUCCGACGAUCCACCCGUUUAUCUAUCUCUCCAUGCUGCAGCUGAACAAAGCGGGCACUGAUAGCAGCUAUGUAACUCUGUUGAUUAGAAAACGCGACUCUUCCAGCUCCUUUUGGGUAUUUGAGCUCUGGCAACAGAGGAUUGAGCAUCA
B9: 140294198_140294318_5200_3pUTR_ENSMUSG00000031285_ENSMUST00000033642|mouse|control|control (ssRNA)
RNA: GGGAGUUCUACAGUCCGACGAUCGAGAGAGAGAGAAUAUAAUGUGUAAGGUCACUGUAUGCUAUUUUUGGUAUAGAUACAAAUAUUCAGUGUCAGCCAGGGCACAAUUUAGUGACAAAAGACACUUGUUUAUACCUGAAAAUUCAACAGAGGAUUGAGCAUCA
B10: chr8:17827181:17827182:+_ENSG00000078674_ENST00000519253|hu_hu|motif|central (ssRNA)
RNA: GGGAGUUCUACAGUCCGACGAUCGCUUUCAAAAGGUUUUGGAAAAGCCAUAUAUUCUGUUUUUCCUGAAGAAUUCUGGGCGGAGGGUUGCUGCUGUUCACUGGGUGUAGAGAUAUUCUGAGAAAAAUCUCCAAAAUUAGAAGGCAACAGAGGAUUGAGCAUCA
B11: chr8:95500983:95500984:-_ENSG00000164944_ENST00000437199|hu_hu|hu_hu_hu_mus_True|38_98 (ssRNA)
RNA: GGGAGUUCUACAGUCCGACGAUCAGAACACAUCUAUUCGUGUAAAGACCGUACAUGACGGCCUCUACCACUGCCUCCACUAACAAACUUUCCUCUCUGAGCCUCCAUGCCGCUAUUUGUACUAGCCCAGGACGGUCCCAGGCCCAACAGAGGAUUGAGCAUCA
B12: chr7:19737724:19737725:-_ENSG00000105849_ENST00000222567|hu_hu|FALSE|FALSE (ssRNA)
RNA: GGGAGUUCUACAGUCCGACGAUCGUAGAGUGCAAAACCUGGAAGAAUAUGAGAGCUGACAGUGAGAGCAGCUUUUUAUUUUGUAUAAAAUGGUAUUUUAACAAUACUGGCUUUCCCCAAAUUAAUUUACAGUCAGUUUUAUCACAACAGAGGAUUGAGCAUCA
B13: chr17:74699132:74699133:-_ENSMUSG00000024067_ENSMUST00000112571|perfect_dup|FALSE|FALSE (ssRNA)
RNA: GGGAGUUCUACAGUCCGACGAUCCCCAAGAAAUCAAUUUCGAUCUUCAAACUGCGCCUUGUUUUUUAAAAGAUAAGAUGCUAGGAACUCGAUGGGAUUUGGUGGUCUUUCCUUGGCAAGCACAGCAAGUCCCUGUAAUAAGAUCAACAGAGGAUUGAGCAUCA
B14: chr12:45383693:45383694:+_ENSMUSG00000036257_ENSMUST00000043082|mus_hu|FALSE|FALSE (ssRNA)
RNA: GGGAGUUCUACAGUCCGACGAUCACAAGAAAUACAGUUGCUUGCUUCUCUGCUUCCCACAAACACUUCUUGCAUUACUAAGGAGGUAAAUAUAUAUAUCUACAGUCAGAUUAAUAGACAUAACUUAAAAAUCAUUUAUUUUCUCAACAGAGGAUUGAGCAUCA
B15: chr20:33096620:33096621:+_ENSG00000078747_ENST00000374864|hu_hu|motif|central (ssRNA)
RNA: GGGAGUUCUACAGUCCGACGAUCGUCUUAAACUCCUUAACAAUAAUUAAAUAUAACUGAAGUUGUUGGAUUAUGAUAAAACGGUAAAGCAUCAAUUAUAUAGCGGAACAUAUAAAAAUCACCAGAGACAUCUUUAGAUGAAUUCAACAGAGGAUUGAGCAUCA
B16: 76006661_76006781_9599_CDS_ENSMUSG00000022565_ENSMUST00000071869|mouse|control|control (ssRNA)
RNA: GGGAGUUCUACAGUCCGACGAUCCUGGCUGUAGGUGACUGGCUCCUGGGUGCUGGGGUCAUGGUAGACUCUGGCAUCAUCUCUGGGUGACGUCAGGGCCCUGUUAGUCUCUUUGUCCAGGUAGCCCCGGGCAUAGGCAACAUCCAACAGAGGAUUGAGCAUCA
B17: chr17:26961916:26961917:-_ENSG00000007202_ENST00000528896|hu_mus|FALSE|FALSE (ssRNA)
RNA: GGGAGUUCUACAGUCCGACGAUCCACUUUGGCAUCUAGCAACUGCAGCCUUUUGGCACUCUCCUUACUUUCAUCCUUCAUCAGUUCGUAGUUAUCAUGAAGUUUCACCUCAAAGAUGUCAUCCAGGAAAACCCAAGAAAAGUGCAACAGAGGAUUGAGCAUCA
B18: chr3:19992450:19992451:+_ENSG00000144566_ENST00000273047|hu_mus|FALSE|FALSE (ssRNA)
RNA: GGGAGUUCUACAGUCCGACGAUCUUUCACAAAGCGAAGAACCAGGCUUGAUUUGCCAACAGCAGACUCUCCUAGAAGGACCAGUUUGAACUGGCAUAUUUUAUUUCCAGUAUUUGGCCCGUUGGGUCUUGUUGCUCCUCGAUUCAACAGAGGAUUGAGCAUCA
B19: chr9:14812383:14812384:-_ENSMUSG00000031934_ENSMUST00000164273|mus_hu|motif|central (ssRNA)
RNA: GGGAGUUCUACAGUCCGACGAUCAUAGCCCAGGUAGAUACACGCUAACAGUAUAAUGAUGAGUGUCAGCAGGCGGCAGCGGAUGUACUUGAUGAUUAAAUUAUUAGAAUUUUUCUUUGUCUUCAAGUACUGCUCCACAAUUGGCAACAGAGGAUUGAGCAUCA
B20: chr5:128448638:128448639:+_ENSG00000066583_ENST00000173527|hu_mus|hu_hu_hu_mus_False|68_78 (ssRNA)
RNA: GGGAGUUCUACAGUCCGACGAUCGGCACUCGCCUUAAUUAGGUUCUGAAUUUCCUUGAAUUUUGGAUGGUCCUUAUCAGCCACCAGCUGUAGGAGGACAGCCUCACUAGUGGUCACGAUGAUCCCAGUGCGGGCAAGACGCUCCAACAGAGGAUUGAGCAUCA
B21: chr8:17827181:17827182:+_ENSG00000078674_ENST00000519253|hu_mus|motif|central (ssRNA)
RNA: GGGAGUUCUACAGUCCGACGAUCGCUUUCAAAGGGUUUUGGAAAAGCCAUAUACUCUGUUUUCCCUGAAGGAUUUUGAGCGGAUGGCUGCUGCUGUUCAGUAGGUGUAGAAACAUUCUGAGAAAAAUCUCCAAAAUUAGAAGGCAACAGAGGAUUGAGCAUCA
B22: chr1:63113421:63113422:-_ENSG00000116641_ENST00000251157|hu_hu|FALSE|FALSE (ssRNA)
RNA: GGGAGUUCUACAGUCCGACGAUCUAAGCAUUUUACAAGAAGUCUUUGACCAAAAUGUUCUUUGGGUAUAUCAGGAACACUAAGCCGUUCUAUUGGUUCUUCCUCAUCUGGUGAUGGAUGCAAAGCAAAAAGUUCUUUGUGACGCAACAGAGGAUUGAGCAUCA

target: T1, UNK ZnF1-3; test: nsRBNS (natural sequence RNA bind-n-seq); RBNS binding buffer (assumed for nsRBNS): 25 mM Tris pH 7.5, 150 mM KCl, 3 mM MgCl2, 0.01% Triton X-100, 500 ug/ml BSA, 20 U/ml SUPERase-In, 4 C; UNK is unkempt and MSI1 is Musashi-1; names of the RNAs are library labels; protein concentration not given here; high values mean tight binding

Binder	binding signal
B1	0.761 enrichment R
B2	1.47 enrichment R
B3	1.17 enrichment R
B4	0.562 enrichment R
B5	1.73 enrichment R
B6	1.54 enrichment R
B7	1.89 enrichment R
B8	0.726 enrichment R
B9	1.24 enrichment R
B10	1.58 enrichment R
B11	0.982 enrichment R
B12	1.29 enrichment R
B13	0.99 enrichment R
B14	1.08 enrichment R
B15	1.68 enrichment R
B16	0.672 enrichment R
B17	1.09 enrichment R
B18	0.704 enrichment R
B19	1.42 enrichment R
B20	0.885 enrichment R
B21	1.27 enrichment R
B22	0.839 enrichment R
